Data: paper PMC6737964
Where two headings read alike, the source gives them in different places. No constants are given. Whether binding was seen depends on the method and setting. For part of these data: Binding seen in cells or lysates may run through a third protein. Some binding calls cover weakened binding; strength is not graded here. For part of these data: Tags and fused reporters may be left off the sequences shown. Blank lines part the entries; values can stand above or below the molecule they belong to.

What was measured:
[1] = molecular target: T1, GST Bud6_(1-141) (Saccharomyces cerevisiae) (UniProt P41697); test: pull-down; GST fusions from E. coli extracts on glutathione-coupled sepharose beads, washed, blocked with 0.1 mg/ml BSA, incubated 1 h with E. coli extract of His6 Aip5_(1000-end) in HBSEP (10 mM Hepes, 150 mM NaCl, 3 mM EDTA, 0.005% Tween-20); eluted with glutathione; anti-His blot; only the target purified
T1 sequence: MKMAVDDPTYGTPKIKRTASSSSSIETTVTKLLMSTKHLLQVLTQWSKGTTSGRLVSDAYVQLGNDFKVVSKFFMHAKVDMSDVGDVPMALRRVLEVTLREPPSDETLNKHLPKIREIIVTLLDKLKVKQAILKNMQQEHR

[2] = molecular target: T2, GST Bud6_(1-364) (Saccharomyces cerevisiae) (UniProt P41697); test: as above
T2 sequence: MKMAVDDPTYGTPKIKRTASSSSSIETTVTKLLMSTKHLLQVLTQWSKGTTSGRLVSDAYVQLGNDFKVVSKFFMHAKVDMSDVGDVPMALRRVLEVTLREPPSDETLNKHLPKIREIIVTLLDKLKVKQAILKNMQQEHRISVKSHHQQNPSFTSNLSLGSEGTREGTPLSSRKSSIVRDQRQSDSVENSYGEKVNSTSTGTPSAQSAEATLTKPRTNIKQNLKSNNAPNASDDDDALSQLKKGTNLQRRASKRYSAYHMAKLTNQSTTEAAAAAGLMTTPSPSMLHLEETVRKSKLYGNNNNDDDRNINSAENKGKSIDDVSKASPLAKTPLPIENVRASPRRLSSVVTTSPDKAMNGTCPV

[3] = molecular target: Aip5CRU (full-length Aip5 fused to C-terminal Ubiquitin-R (arginine)-Ura3) (Saccharomyces cerevisiae) (UniProt P43597); test: split reporter; split-ubiquitin array screen: Aip5CRU a-strain mated with 533 Nub fusion alpha-strains, diploids spotted in quadruplets on 5-FOA medium, 4 days; growth indicates interaction
[4] = molecular target: T3, Aip5 N-terminal 300 amino acids as CRU fusion (Saccharomyces cerevisiae) (UniProt P43597); test: split reporter; split-ubiquitin, manual: haploid or diploid yeast co-expressing one CRU and one Nub fusion, tenfold serial dilutions from OD600=1 on medium with or without 1 mg/ml 5-FOA, 30°C, 2-7 days; also in cells lacking BUD6 or SPA2
T3 sequence: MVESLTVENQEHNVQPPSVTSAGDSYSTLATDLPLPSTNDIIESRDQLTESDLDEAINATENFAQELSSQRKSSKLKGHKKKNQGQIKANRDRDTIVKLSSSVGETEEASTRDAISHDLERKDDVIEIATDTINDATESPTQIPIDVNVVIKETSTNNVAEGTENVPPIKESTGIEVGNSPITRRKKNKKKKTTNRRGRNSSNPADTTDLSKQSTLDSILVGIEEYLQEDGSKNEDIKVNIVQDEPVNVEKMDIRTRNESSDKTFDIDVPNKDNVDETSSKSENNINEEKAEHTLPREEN

[5] = molecular target: Aip5CRU (full-length Aip5 fused to C-terminal Ubiquitin-R (arginine)-Ura3) (Saccharomyces cerevisiae) (UniProt P43597); test: as above
[6] = molecular target: Aip5_(Δ1000-1125) CRU (Saccharomyces cerevisiae) (UniProt P43597); test: as above
[7] = molecular target: Pex3_(1-45)-mCherry-Spa2 (Saccharomyces cerevisiae) (UniProt P23201); test: relocation to Spa2-decorated peroxisomes (fluorescence microscopy); Pex3_(1-45)-mCherry-Spa2 on peroxisomes co-expressed with GFP fusions of Aip5 in yeast cells with a deletion of the genomic SPA2; percent of counted cells with co-localisation
[8] = molecular target: Aip5CRU (full-length Aip5 fused to C-terminal Ubiquitin-R (arginine)-Ura3) (Saccharomyces cerevisiae) (UniProt P43597); test: split reporter; split-ubiquitin, manual: haploid or diploid yeast co-expressing one CRU and one Nub fusion, tenfold serial dilutions from OD600=1 on medium with or without 1 mg/ml 5-FOA, 30°C, 2-7 days; also in cells lacking BUD6 or SPA2; remark: listed apart in the source
[9] = molecular target: T4, Aip5_(1000-1131) as CRU fusion (Saccharomyces cerevisiae) (UniProt P43597); test: as above
T4 sequence: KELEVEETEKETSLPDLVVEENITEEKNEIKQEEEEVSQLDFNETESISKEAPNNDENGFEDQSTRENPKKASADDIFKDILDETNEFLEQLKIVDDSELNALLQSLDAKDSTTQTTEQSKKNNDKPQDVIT

[10] = molecular target: Aip5_(Δ1000-1125) CRU (Saccharomyces cerevisiae) (UniProt P43597); test: as above; remark: listed apart in the source
[11] = molecular target: Aip5_(1000-end)CRU (Saccharomyces cerevisiae) (UniProt P43597); test: as above

binding [7]: no binding
Molecule: Aip5_(300-end)-GFP (from UniProt P43597 300-1233) (domain or fragment)

binding [3]: binds
binding [8]: binds
binding [9]: binds
binding [10]: no binding
B1: Nub-Bud6 (protein, UniProt P41697 1-788)
chain: MKMAVDDPTYGTPKIKRTASSSSSIETTVTKLLMSTKHLLQVLTQWSKGTTSGRLVSDAYVQLGNDFKVVSKFFMHAKVDMSDVGDVPMALRRVLEVTLREPPSDETLNKHLPKIREIIVTLLDKLKVKQAILKNMQQEHRISVKSHHQQNPSFTSNLSLGSEGTREGTPLSSRKSSIVRDQRQSDSVENSYGEKVNSTSTGTPSAQSAEATLTKPRTNIKQNLKSNNAPNASDDDDALSQLKKGTNLQRRASKRYSAYHMAKLTNQSTTEAAAAAGLMTTPSPSMLHLEETVRKSKLYGNNNNDDDRNINSAENKGKSIDDVSKASPLAKTPLPIENVRASPRRLSSVVTTSPDKAMNGTCPVFLRIGDKTKKCHVQLPTTKNALRLLFIERFAYSPGANSFPDIYIMDPQYGVFYELEELNLLDIKEGFVIELKLEENPNNTIKEFIDTVKMEISNSQNDIIRHLKEMSFGSAISGKQTEVLPQPGLEANKHDLVGQNKKDDDKTIKDIQYELGKIKQVHNINRSNINETIFNILRKVDNFKSLSFSAKNSSNRMYMEKSQTELGDLSDTLLSKVDDLQDVIEIMRKDVAERRSQPAKKKLETVSKDLENAQADVLKLQEFIDTEKPHWKKTWEAELDKVCEEQQFLTLQEELILDLKEDLGKALETFDLIKLCCEEQEKNPSRSKSNPILPIMRPGTFNQVREQVMVAVQSLNPDHDSRVEAIDKAEKMWEMERKLKASNEFDDELENFVGNSNLKKSGGFEEVERIRKQKDEANLRAYFGPGFT

binding [11]: binds
B2: Nub-Bud6_(1-141) (domain or fragment, UniProt P41697 1-141)
chain: MKMAVDDPTYGTPKIKRTASSSSSIETTVTKLLMSTKHLLQVLTQWSKGTTSGRLVSDAYVQLGNDFKVVSKFFMHAKVDMSDVGDVPMALRRVLEVTLREPPSDETLNKHLPKIREIIVTLLDKLKVKQAILKNMQQEHR

More lines, now with the values behind:

Molecule: His6 Aip5_(1000-end) (from UniProt P43597 1000-1233) (domain or fragment)
binding [1]: binds
binding [2]: binds

Molecule: Nub-Spa2 (from UniProt P23201 1-1466)
binding [3]: binds
binding [4]: binds
binding [5]: binds
binding [6]: binds
